Laboratory results published in PubChem BioAssay AID1508642 (National Center for Advancing Translational Sciences (NCATS), 2021).
Screen size: about 43,000 compounds; about 200 (0.47%) were called active. Roughly 12% stayed inconclusive and do not appear here. Calls come from the whole dose curve; as a rule, active = well fitted cell-killing curve with a large enough effect; inconclusive = small, poorly fitted or top-dose-only effect, or effect the other way; inactive = flat fitted curve, though single readings scatter. Some of the results follow.

experiment: Cell viability qHTS assay in S16 Pmp22-F2sN cells; conditions: S16 Pmp22-F2sN Schwann cells (luciferase reporters placed in the Pmp22 gene) viability, CellTiter-Glo, 24 h; series mostly up to 57.5 µM; activity change, negative = cytotoxicity: at the top concentration; note: nearly all actives have a fitted effect of over 65% in size
Method in brief: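 Luminescence from CellTiter-Glo, read by CCD camera after a 15 min room-temperature incubation, served as the viability signal. Reporter Schwann cells (S16 Pmp22-F2sN) had been treated with pin-transferred compounds for 24 h at 37C.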
% is set by controls: 0 for no effect and ±100 for the full control effect; potency is the fitted concentration of half-maximal effect.

SMILES	activity change, negative = cytotoxicity	Potency
CCc1ccc(NC(=O)Cn2c(=O)n(CCCCC(=O)NCCc3ccccc3)c(=O)c3ccccc32)cc1	inactive: -1.25%	–
COc1ccc(C2c3c(oc4ccc(C)cc4c3=O)C(=O)N2CCCN2CCOCC2)cc1OC (stereo not given)	inactive: 15%	–
CCOC(=O)c1c(NC(=O)COc2c(C)cc(Cl)cc2Cl)sc2c1CCCC2	inactive: -2.19%	–
COc1ccc(-c2noc(CC(=O)Nc3ccc(Br)cc3C)n2)cc1	inactive: 9.98%	–
COc1ccc(S(=O)(=O)NCC(c2ccc(N(C)C)cc2)N2CCCC2)cc1 (stereo not given)	inactive: 0.325%	–
Cc1ccc2c(=O)cc(C(=O)Nc3ccc(S(=O)(=O)N(C)Cc4ccccc4)cc3)oc2c1C	inactive: 3.31%	–
COc1cccc(C(=O)NCc2cn3ccccc3n2)c1	inactive: 16.7%	–
CCOc1ccc(OCC)c(NS(=O)(=O)c2c(C(=O)N3CCCCCC3)c(C)n(C)c2C)c1	inactive: 14.6%	–
CCOc1ccc(C(=O)c2cn(CC(=O)Nc3ccc(F)cc3)c3cc4c(cc3c2=O)OCCO4)cc1	inactive: 8.27%	–
O=C(CSc1nnc(-c2ccccc2)c(-c2ccccc2)n1)NC1CCCC1	inactive: 4.3%	–
O=C(NCCCO)C(=O)NCC(c1ccc2c(c1)OCO2)N1CCOCC1 (stereo not given)	inactive: 0.99%	–
O=C(CSc1nc2ccccc2nc1Cc1ccc(Cl)cc1)N1CCCc2ccccc21	inactive: -23.7%	–
CCOC(=O)c1c(C)c(C(=O)NCc2ccc(OC)cc2)c(C)n1CC	inactive: 3.07%	–
COc1ccc(NCc2cc3cc4c(cc3n(CC(=O)Nc3ccc(F)cc3)c2=O)OCCO4)cc1	inactive: 24%	–
COC(=O)C(C)Sc1nc2c(cnn2-c2ccc(F)cc2)c(=O)[nH]1 (stereo not given)	inactive: 19.2%	–
Cc1ccccc1N(C)S(=O)(=O)c1nnc(NC(=O)c2ccccc2F)s1	inactive: -2.08%	–
COc1ccc(-n2ccnc2SCC(=O)Nc2nnc(C)s2)cc1	inactive: -4.64%	–
CCOC(=O)Cn1c(=O)n(C2CCCCC2)c2nc(-c3ccc(CC)cc3)nc(C(N)=O)c21	inactive: 1.06%	–
Cc1nc2ccccc2n2c(-c3ccccc3)c3c(=O)n(C)c(=O)n(C)c3c12	inactive: 5.36%	–
Cc1cc(C)cc(NC(=O)Cn2c(=O)n(-c3cc(C)cc(C)c3)c(=O)c3oc4ccccc4c32)c1	inactive: 11.6%	–
Cn1nc(C(=O)NCc2cccc(Cl)c2)c2c1-c1ccccc1S(=O)(=O)C2	inactive: 6.5%	–
Cc1c(Cl)cccc1NC(=O)CCS(=O)(=O)c1ccc2c(c1)oc(=O)n2C	inactive: -29%	–
CN(c1ccccc1)S(=O)(=O)c1nnc(NC(=O)C2CCCCC2)s1	inactive: 7%	–
COc1cccc(CNC(=O)CCn2nc(C)c3c(C)n(-c4ccccc4)nc3c2=O)c1	inactive: -13.8%	–

SMILES	activity change, negative = cytotoxicity	Potency
COc1cccc(Cn2c(CNC(=O)CCc3ccccc3)nc3cccnc32)c1	inactive: 2.01%	–
Cc1ccc(NC(=O)C(=O)NCCc2sc(-c3ccc(Cl)cc3)nc2C)cc1C	inactive: 9.62%	–
Cc1ccc(S(=O)(=O)NCCc2csc(-c3ccc(Cl)cc3)n2)cc1	inactive: -10%	–
Cc1cc(C(F)F)n2nc(C(=O)Nc3cccc(Cl)c3C)nc2n1	inactive: 4.17%	–
Cc1ccccc1OCC(=O)Nc1ccccc1C(=O)OCc1cc(=O)n2ccsc2n1	inactive: 3.89%	–
Cc1nn(CCCC(=O)NCCc2ccc(Cl)cc2)c(=O)c2c1sc1ccccc12	inactive: 7.67%	–
N=c1c(C(=O)NCC2CCCO2)cc2c(=O)n3ccccc3nc2n1CCCO (stereo not given)	inactive: 9.39%	–
COc1ccc(F)cc1S(=O)(=O)NCC(c1ccco1)S(=O)(=O)c1ccc(F)cc1 (stereo not given)	–	active: 15.8 µM
CCOc1cc(C(=O)NCCc2csc3nc(-c4ccccc4F)nn23)cc(OCC)c1OCC	inactive: 4.72%	–
COc1ccc(Cn2c(C(=O)O)c(CNCCc3ccco3)c3ccc(C)cc32)cc1	inactive: -16.1%	–
CCOc1ccc(CNC(=O)C2CCN(S(=O)(=O)c3cn(C)cn3)CC2)cc1	inactive: -17.5%	–
O=C(CN1C(=O)CCn2nc(-c3ccccc3)cc21)NCc1ccc(F)cc1	inactive: 9.36%	–
Cn1ncc2c(NCc3ccccc3Cl)nc(NCCO)nc21	inactive: -0.562%	–
COc1ccc2c(c1)c1c(c(=O)n(-c3ccccc3)c(=O)n1CC(=O)NCCC1=CCCCC1)n2C	inactive: 1.7%	–
O=C(Nc1ccc(-n2nncc2-c2ccccc2)cc1)c1cccc(F)c1	inactive: -3.42%	–
CC1=C(C(=O)Nc2ccccc2)C(c2ccc(C(=O)O)cc2)n2ncnc2N1 (stereo not given)	inactive: 0.283%	–
CCOc1ccc(Nc2nc3c(S(=O)(=O)c4cccc(Cl)c4)nnn3c3ccsc23)cc1	inactive: 4.14%	–
CCc1ccc(OCC(=O)N(Cc2ccco2)Cc2ccccc2Cl)cc1	inactive: -1.92%	–
COc1ccccc1N1CCN(C(=O)c2cn(C)c3ccc(S(=O)(=O)N(C)C4CCCCC4)cc3c2=O)CC1	inactive: 6.04%	–
CCOc1ccc(NC(=O)c2cnn(-c3ccc(C)c(C)c3)c2C2CCN(C(=O)OC(C)(C)C)CC2)cc1	inactive: -2.7%	–
Cc1ccc(C(=O)NCC(c2ccc3c(c2)OCO3)N2CCN(C)CC2)cc1C (stereo not given)	inactive: 2.29%	–
Cc1ccc(NC(=O)CCCn2c(=O)c3cccn3c3ccccc32)c(C)c1	inactive: -19.1%	–
CCOC(=O)c1cnc2c(ccc3ccccc32)c1Nc1cccc(C(F)(F)F)c1	inactive: -7.65%	–
O=c1cc(-c2ccc(F)cc2)nc(SCc2nc(-c3ccccc3Cl)no2)[nH]1	inactive: 2.58%	–

SMILES	activity change, negative = cytotoxicity	Potency
CCOc1ccc(NC(=O)C(=O)NCCc2csc3nc(-c4ccccc4F)nn23)cc1	inactive: -3.35%	–
COC(=O)c1ccc(Cl)cc1NC(=O)N(C)CCc1c(C)nn(C)c1C	inactive: -5.94%	–
CCOc1ccc(NC(=O)Cn2cc(C(=O)c3ccc(C)c(C)c3)c(=O)c3cc(OC)c(OC)cc32)cc1	inactive: 0.531%	–
COc1cc(NC(=O)C(CC(C)C)NS(=O)(=O)c2ccc3c(c2)oc(=O)n3C)c(C(=O)O)cc1OC (stereo not given)	inactive: 15.4%	–
CCOC(=O)c1ccc(NC(=O)c2csc3c2CCCCC3)cc1	inactive: -6%	–
Cc1cccc(N2CCN(C(=O)c3cc4c(=O)n(C)c5ccccc5c4s3)CC2)c1C	inactive: -3.13%	–
COc1cc(C(=O)Nc2ccc(NC(=O)c3ccc(Br)cc3)cc2)cc(OC)c1OC	inactive: 8.91%	–
COc1ccc(CCn2c3c(c(=O)[nH]c2=O)C(NC(=O)c2ccccc2OC)(C(F)(F)F)C(=O)N3)cc1OC (stereo not given)	inactive: 0.179%	–
CCC1CCCCN1C(=O)CSc1nc2c([nH]c3ccccc32)c(=O)n1-c1cccc(OC)c1 (stereo not given)	inactive: -11.1%	–
Cc1oc(-c2cccc(Cl)c2)nc1CSc1nc2ncccc2[nH]1	inactive: -15.5%	–
Cc1nn(-c2nc(-c3ccc(F)cc3)cc(C(F)(F)F)n2)c(C)c1Cl	inactive: -10.4%	–
CC(=O)N1CCC2(CC1)OC(=O)C(C)=C2C(=O)NCc1ccc(Cl)cc1	inactive: 6.62%	–
Cn1ccc2c(OCC(=O)NCc3ccccc3Cl)cccc2c1=O	inactive: 7.19%	–
CCc1ccc(CNC(=O)c2ccc3nc(C(C)C)oc3c2)cc1	inactive: 7.14%	–
CCc1ccc(NC(=O)C(=O)NCC(c2cccnc2)N2CCN(C)CC2)cc1 (stereo not given)	inactive: 0.288%	–
COc1ccc(OC(C)c2nc3ccccc3[nH]2)cc1 (stereo not given)	inactive: -5.13%	–
O=C(Cn1ncc2c3ccccc3n(Cc3ccccc3)c2c1=O)Nc1ccccc1C(F)(F)F	inactive: 13.7%	–
COc1ccc(OC)c(CNC(=O)CCCn2nc(C)c3c(C)n(-c4ccc(C)cc4)nc3c2=O)c1	inactive: -6.14%	–
CCn1ccc2cc(S(=O)(=O)N3CCCN(C(=O)Nc4cc(Cl)ccc4C)CC3)ccc21	inactive: -0.884%	–
CC(C)c1ccc(NS(=O)(=O)c2ccc3[nH]cc(C(=O)N4CCCC4)c(=O)c3c2)cc1	inactive: -1.31%	–
COc1cccc(CNC(=O)Cc2c(C)c3c(cc(C)c4c(C)coc43)oc2=O)c1	inactive: 4.63%	–
CCOc1ccc(NC(=O)Nc2ccc3snnc3c2)cc1	inactive: 2.39%	–
COc1ccc2c(c1)-c1nc(NC(=O)c3ccc(C)cc3)sc1CC2	inactive: -26.5%	–
Cc1cc(C)cc(-n2c(SCC(=O)NCC3CCCO3)nc3c([nH]c4ccccc43)c2=O)c1 (stereo not given)	inactive: 3.9%	–

SMILES	activity change, negative = cytotoxicity	Potency
CCOc1ccc(-c2cc(NC(=O)c3ccc(C)cc3)c(C(=O)OC)s2)cc1	inactive: -2.5%	–
COc1ccc(-c2noc(-c3ccc(NCCc4ccccc4)c([N+](=O)[O-])c3)n2)cc1OC	inactive: 5.16%	–
CCCC(=O)C1=C(c2ccc(C)c(C)c2)N(C(=O)CCC)n2c(CC)nnc2S1	inactive: -26.8%	–
CCOc1ccccc1CNC(=O)c1cnc2sc(N3CCCC3)nn2c1=O	inactive: -2.71%	–
CCOCCCn1c(SCC(=O)Nc2cccc(OC)c2)nc2ccccc2c1=O	inactive: 0.509%	–
CCCN1C(=O)c2ccccc2CC1(C)C(=O)NC1CCCCC1 (stereo not given)	inactive: 17.8%	–
COc1ccccc1NC(=O)C1CCN(S(=O)(=O)c2ccc3c(c2)oc(=O)n3C)CC1	inactive: 2.3%	–
Cc1ccc(NC(=O)N2CCN(c3nnc(C)c4c(C)n(-c5ccccc5)nc34)CC2)cc1Cl	inactive: 1.44%	–
CCN(c1ccc(Cl)cc1)S(=O)(=O)c1nnc(NC(=O)C2CCCCC2)s1	inactive: 1.79%	–
Cc1ccc2nc(N(Cc3cccnc3)C(=O)c3ccc4c(c3)OCCO4)sc2c1	inactive: 2.59%	–
CCOCCc1nn2c(=O)cc(COC(=O)c3cccs3)nc2s1	inactive: 0.132%	–
O=C(NCc1ccc2c(c1)OCO2)c1ccc2c(c1)N(Cc1ccc(F)cc1)C(=O)c1ccccc1S2=O (stereo not given)	inactive: -6.29%	–
CCCCCn1c(=O)[nH]c2cc(C(=O)NCc3ccc(OC)cc3)ccc2c1=O	inactive: -0.36%	–
CCOC(=O)c1ccc(NC(=O)CCS(=O)(=O)c2ccc3c(c2)oc(=O)n3C)cc1	inactive: -27.8%	–
Cc1ccc(Cl)cc1N1CCN(S(=O)(=O)c2ccc3[nH]c4c(c3c2)CCCC4)CC1	inactive: -20.8%	–
Cc1cccc(N2CCN(C(=O)C3CCN(S(=O)(=O)c4cn(C)cn4)CC3)CC2)c1C	inactive: 3.27%	–
COc1ccccc1NC(=O)CN1C(=O)c2cccc3cccc1c23	inactive: 1.31%	–
CCCCN(CCCC)CCNC(=O)CN1C(=O)CSc2ccc(S(=O)(=O)N3CCCCC3)cc21	inactive: 3.4%	–
Cc1cccc(CN2C(=O)CC(c3ccc(Cl)cc3)c3c(C)nn(-c4nc(C)cc(C)n4)c32)c1 (stereo not given)	inactive: 1.51%	–
COc1ccccc1N(CC(=O)Nc1ccccc1F)S(C)(=O)=O	inactive: 4.62%	–
CCOc1ccc(-n2nc3cc(C)c(NC(=O)CC)cc3n2)cc1	inactive: 24.9%	–
CCc1ccc(NC(=O)C(CC)n2nnc(C(=O)OC)c2C(=O)OC)cc1 (stereo not given)	inactive: 0.494%	–
COc1ccc(C2NC(=O)c3c(sc4c3CCN(C)C4)N2)cc1O (stereo not given)	inactive: 21.7%	–
